In PubChem BioAssay AID540317 (National Center for Advancing Translational Sciences (NCATS), 2011):
The campaign covered roughly 390,000 compounds. About 2,200 (0.56%) were called active. The shares of active, inactive and inconclusive entries below differ from those in the screen. Calls follow the shape of the dose curve; as a rule, active = well fitted inhibition curve with a large enough effect; inconclusive = small, poorly fitted or top-dose-only effect; inactive = no such curve, though single readings can be large or run the other way. Where the call is inconclusive, the potency comes from a doubtful curve fit.

Molecular target: Chromobox protein homolog 1 (Homo sapiens) (UniProt P83916)
Test: HTS for Inhibitors of HP1-beta Chromodomain Interactions with Methylated Histone Tails; also: nearly all actives have a fitted effect of over 70% in size
Details: AlphaScreen HP1-beta / biotin-H3K9me3 peptide binding; series mostly up to 114 µM
How it was run: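 HP1-beta protein (50 nM final) preincubated 30 min at room temperature with biotinylated H3(1-18)K9me3 peptide (50 nM) in PBS pH 7.4, 0.01% Tween-20, then compound added for 30 min. AlphaScreen streptavidin donor/nickel chelate acceptor beads (10 ug/mL final), 30 min dark, luminescence read.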
Potency is read from the fitted curve at half-maximal effect; tags tell the direction and shape of the fitted curve.

Chain of UniProt P83916 (P83916 whole entry, looked up): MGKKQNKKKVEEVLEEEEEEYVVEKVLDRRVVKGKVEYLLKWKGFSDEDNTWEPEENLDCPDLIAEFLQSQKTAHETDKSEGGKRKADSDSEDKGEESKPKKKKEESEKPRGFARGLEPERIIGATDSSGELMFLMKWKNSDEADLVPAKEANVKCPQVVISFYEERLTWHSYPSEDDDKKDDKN

| SMILES | Potency |
| --- | --- |
| COc1ccccc1N=Cc1c(C)[nH]n(-c2ccc(C)cc2C)c1=O | inconclusive: 44.7 µM [inhibitor, partial curve, poor fit] |
| Brc1ccccc1CN1CCC(N2CCCCC2)CC1 | inactive |
| Cn1c(-c2cccc(Br)c2)cnc1NCc1cccnc1 | inconclusive: 8.91 µM [inhibitor, full curve] |
| C=C1N(C)c2cc([N+](=O)[O-])c(N)cc2C1(C)C | inconclusive: 50.1 µM [inhibitor, partial curve] |
| Cc1nnc(NC(=O)C2c3ccccc3Oc3ccccc32)s1 | inconclusive: 31.6 µM [inhibitor, single point] |
| O=c1[nH]n(-c2ccc([N+](=O)[O-])cc2)c(=O)c2ccccc12 | inconclusive: 50.1 µM [inhibitor, partial curve] |
| O=C1C[C@@H]2c3c(cccc3CN1Cc1ccccc1F)C[C@@H](O)[C@H]2O | inactive |
| Oc1ccc(CN2CCN(Cc3ccccc3)CC2)c2cccnc12 | inconclusive: 14.1 µM [inhibitor, partial curve] |
| COc1ccc(/C=C/C(=O)Nc2ccc3nc(N4CCC(C)CC4)cc(C)c3c2)cc1OC | inconclusive: 31.6 µM [inhibitor, partial curve, poor fit] |
| O=C1Nc2ccccc2N(O)N1c1ccc(Cl)cc1 | inactive |
| Cc1ccc(/C=C2\SC(=S)N(CCCC(=O)Nc3ccccc3C(=O)O)C2=O)cc1 | inconclusive: 79.4 µM [inhibitor, single point] |
| N#Cc1ccc(COC(=O)CC(NC(N)=O)c2ccc(Cl)cc2)cc1 (stereo not given) | inconclusive: 89.1 µM [inhibitor, single point] |
| O=C(NC(=S)Nc1ccc(C(F)(F)F)cc1)c1csnn1 | inactive |
| COc1cc(NC(=O)c2ccc3nsnc3c2)cc(OC)c1OC | inactive |
| COc1ccc(Nc2nc(N)c([N+](=O)[O-])c(NC3CCCCC3)n2)cc1 | inconclusive: 25.1 µM [inhibitor, full curve] |
| CCN(CC)c1ccc(N)cc1S(=O)(=O)Nc1ccccc1OC | active: 11.2 µM |
| COc1ccc(NC(=O)CSc2nnc(C(C)C)n2N)cc1 | inactive |
| CCOCCn1c(SC)nc2c1c(=O)[nH]c(=O)n2C | inconclusive: 22.4 µM [inhibitor, partial curve, poor fit] |
| CCOC(=O)C(Cc1cc(N)c(Oc2ccc(OC)cc2)c(N)c1)NC(C)=O (stereo not given) | inconclusive: 79.4 µM [inhibitor, single point] |
| COc1ccc(NC2=Nc3cccc4cccc2c34)cc1 | inconclusive: 44.7 µM [inhibitor, partial curve] |
| COc1ccc(S(=O)(=O)Nc2ccc(-c3ccc4nncn4n3)cc2)c(OC)c1 | inconclusive: 50.1 µM [inhibitor, partial curve] |
| Cc1cc(C)cc(-n2ccnc2SCC(=O)Nc2ccc3c(c2)OCO3)c1 | inconclusive: 14.1 µM [inhibitor, partial curve] |
| CC1=Nc2cccc3cccc(c23)N1 | inconclusive: 50.1 µM [inhibitor, partial curve] |
| Nc1nc(NCc2ccco2)nc(N2CCCCCC2)c1[N+](=O)[O-] | inconclusive: 70.8 µM [inhibitor, partial curve] |

| SMILES | Potency |
| --- | --- |
| COc1ccc(-c2csc(N3CCN(C(=O)c4ccco4)CC3)n2)cc1 | inconclusive: 35.5 µM [inhibitor, partial curve, poor fit] |
| CNC(=O)/C(C#N)=C/c1c(N2CCN(c3ccc(OC)cc3)CC2)nc2c(C)cccn2c1=O | inconclusive: 56.2 µM [inhibitor, single point] |
| COc1cccc(-c2sc3ccc(OC)cc3c2-c2ccc(OCCN3CCCC3)cc2)c1 | inconclusive: 39.8 µM [inhibitor, partial curve] |
| CCCCn1cnc2c(Sc3c([N+](=O)[O-])ncn3C)nc(N)nc21 | inactive |
| CC1=NN(c2ccc(Cl)cc2)C(=O)C1C(c1ccccc1O)c1c(C)[nH]n(-c2ccc(Cl)cc2)c1=O (stereo not given) | inconclusive: 50.1 µM [inhibitor, partial curve] |
| COc1cc(/C=C2\SC(=S)N(CC(=O)O)C2=O)ccc1OS(=O)(=O)c1ccc(C)cc1 | inconclusive: 50.1 µM [inhibitor, partial curve] |
| COc1cc(OC)cc(C(=O)N2CCN(Cc3ccccc3Br)CC2)c1 | inconclusive: 14.1 µM [inhibitor, partial curve, poor fit] |
| COc1ccccc1NS(=O)(=O)c1cc(NC(=O)Nc2cccc(C)c2)ccc1N1CCCCC1 | inconclusive: 17.8 µM [inhibitor, full curve] |
| CCOc1ccc(/C=C(\C#N)C(=O)Nc2sc3c(c2C(=O)OC)C(C(=O)OC)CC3)cc1OC (stereo not given) | inconclusive: 3.55 µM [inhibitor, full curve, poor fit] |
| O=C(O)c1ccccc1C(=O)Nc1ccccc1 | inactive |
| CCCC(C)C(=O)Nc1nc(C)c(-c2csc(Nc3ccc(Cl)cc3)n2)s1 (stereo not given) | inconclusive: 25.1 µM [inhibitor, full curve] |
| CCS(=O)(=O)N1CCN(Cc2ccccc2OC)CC1 | inconclusive: 44.7 µM [inhibitor, partial curve] |
| Cc1ccc(CNC(=O)CCCCn2c(=O)c3ccccc3n(Cc3ccc(C)cc3)c2=O)cc1 | inactive |
| CC12CN(C(=O)c3ccc(Cl)cc3)C3(C#N)CC1CCC23C (stereo not given) | inactive |
| COc1ccc(N2CCN(CCCNC(=O)c3cc(Nc4ccccc4OC)nc4ccccc34)CC2)cc1 | inconclusive: 20 µM [inhibitor, partial curve, poor fit] |
| O=C1C2C3c4ccccc4C(c4ccccc43)C2C(=O)N1Cc1cccnc1 (stereo not given) | inactive |
| Cn1c(C(=O)N2CCc3ccccc3C2)cc2oc3ccccc3c21 | inconclusive: 70.8 µM [inhibitor, single point] |
| Cc1ccc(NC(=S)N/N=C/c2ccc([N+](=O)[O-])s2)cc1 | inconclusive: 28.2 µM [inhibitor, partial curve] |
| CC(=O)NN1C(=O)/C(=C\c2ccc(Cl)cc2)SC1=S | inactive |
| C=CCOc1cccc(C(=O)N2CCCC(Nc3ccc(F)cc3)C2)c1 (stereo not given) | inconclusive: 79.4 µM [inhibitor, single point] |
| CN1c2ccccc2N(C)C1(C)c1ccccc1 | inconclusive: 20 µM [inhibitor, full curve, poor fit] |
| Cc1ccc(C)c(N2N=C(C(=O)NCCN3C(=O)S/C(=C\c4cccnc4)C3=O)CCC2=O)c1 | inactive |
| Cc1ccc2c(c1C)NC(C(=O)O)C1CC=CC21 (stereo not given) | active: 11.2 µM |
| C#CCOc1ccc(C2C(C#N)=C(N)Oc3cc(O)ccc32)cc1 (stereo not given) | inactive |

| SMILES | Potency |
| --- | --- |
| COc1cc(C(=O)OCc2cc(=O)n3nc(C(C)C)sc3n2)cc(OC)c1OC | inconclusive: 89.1 µM [inhibitor, single point] |
| O=C(NC12CC3CC(CC(C3)C1)C2)C1CC(=O)N(c2ccc(Br)cc2)C1 (stereo not given) | inconclusive: 2.24 µM [inhibitor, partial curve, poor fit] |
| COc1ccccc1NS(=O)(=O)c1cc(NC(=O)C2CCCC2)ccc1N1CCOCC1 | inconclusive: 10 µM [inhibitor, full curve, poor fit] |
| CCc1cccc(CC)c1NC(=O)c1cccc(N)c1 | inconclusive: 39.8 µM [inhibitor, single point] |
| CC1(c2ccc([N+](=O)[O-])cc2)Nc2ccccc2S1 (stereo not given) | inconclusive: 39.8 µM [inhibitor, partial curve] |
| COc1ccc(CCNc2oc(-c3ccc(OC)c(OC)c3)nc2P(=O)(OC)OC)cc1OC | inactive |
| CCCc1cc(=O)oc2cc(C)cc(OCC(=O)Nc3ccc(CN4CCOCC4)cc3)c12 | inactive |
| COc1cccc(CNC(=O)Cc2c(C)c3c(cc(C)c4c(C)coc43)oc2=O)c1 | inactive |
| CCOC(=O)N(O)c1ccc(C=Cc2ccccc2)cc1 | inconclusive: 15.8 µM [inhibitor, partial curve] |
| Cc1nn(-c2ccccc2)c(N)c1N=Nc1ccc2ccccc2c1 | inconclusive: 17.8 µM [inhibitor, full curve] |
| Cc1ccc(C(C)C)c(OCCn2ccnc2C)c1 | inconclusive: 56.2 µM [inhibitor, partial curve, poor fit] |
| Cc1oc(-c2cccc(Cl)c2)nc1CSc1nc2ncccc2[nH]1 | inactive |
| Cc1ccc([N+](=O)[O-])cc1S(=O)(=O)N1CCCC1 | inactive |
| O=C1/C(=C\c2cccc(O)c2O)SC(=S)N1Cc1ccccc1 | inconclusive: 17.8 µM [inhibitor, full curve] |
| CCOC(=O)c1cc(C(=O)OCC)cc(-n2c(C)cc(C(=O)CN3CCOCC3)c2C)c1 | inactive |
| COc1ccc(S(=O)(=O)N/N=c2\oc3c(OC)cccc3cc2S(=O)(=O)c2ccc(C)cc2)cc1OC | inactive |
| O=C(Nc1nnc(COc2ccc(Cl)cc2)s1)c1cccs1 | inconclusive: 6.31 µM [inhibitor, single point] |
| NS(=O)(=O)c1ccc(N/N=C2/CCCCC2C2CCCCC2)c([N+](=O)[O-])c1 (stereo not given) | active: 31.6 µM |
| O=C(Nc1ccc(F)cc1F)c1c2c(nc3ccccc13)C(=O)N(C1CCCCC1)C2 | inactive |
| CN1CCN(c2ccc(NC(=O)COc3cccc4ccccc34)cc2)CC1 | inactive |
| Cc1ccc(N2C(=O)C3C(c4ccccc4)N4CCCN4C3(C)C2=O)cc1 (stereo not given) | inactive |
| CCn1c(CCNC(=O)c2cccs2)nnc1SCC(=O)c1ccc(OC)cc1 | inconclusive: 89.1 µM [inhibitor, single point] |
